Experimental data published in the RNAGym collection of RNA variant scans (doi:10.7554/elife.90254).
The source gives no read counts; variants with many changes may rest on few reads.

B1: LINE1-full (parent)
chain: UACGUAGGUGGUUUUCCCCUGAUAGUGCUAAGGGGGCCUGGAAGUUUGGACUGGGCAGAGCUCAACACAGCGUGGCAAAGUGGCUGUGGCUAGACUGCCUCUCUGGAUUCCUCGUCACUCAGCAGGGCAUCUCUGAGAGAAAUGCC

Variants of: B1
Test: self-cleavage, relative activity (ratio to wild type); higher = more cleavage; in vitro, sequencing; the parent is a self-cleaving ribozyme

Row | Variant | self-cleavage
1 | UACGUAGGUGGUUUUCCCCUGAUAGUGCUAAGGGGGCCUGGAAGUUUGGACUGGGCAGAGCUCAACACAGCGUGGCAAGGUGGCCGUGGCUAGACUGCCUCUCUGGAUUCCUCGUCACUCAGCAGGGCAUCUCUGAGAAAAAUGCC | 0.27
2 | UACGUAGGUGGUUUUCCCCUGAUAGUGCUAAGGGGGCCUGGAAGUUUGGACUGGGCAGAGCUCAACACAGCGUGGCAAGGUGGCUGUGGCUAGACAGCCUCUCUGGAUUCCUCGUCACUCAGCAGGGCAUCUCUGAAAGAAAUGCC | 0.12
3 | UACGUAGGUGGUUUUCCCCUGAUAGUGCUAAGGGGGCCUGGAAGUUUGGACUGGGCAGAGCUCAACACAGCGUGGCAAGGUGGCUGUGGCUAGACUGCCUCUCUGGAUUCCUCGUCACCCAGCAGGGCAUCUCUGAGAGAAACGCC | 2.45
4 | UACGUAGGUGGUUUUCCCCUGAUAGUGCUAAGGGGGCCUGGAAGUUUGGACUGGGCAGAGCUCAACACAGCGUGGCAAGGUGGCUGCGGCUAGACUGCCUCUCUGGAUUCCUCGUCACUCAGCAGGGCAUCCCUGAGAGAAAUGCU | 0
5 | UACGUAGGUGGUUUUCCCCUGAUAGUGCUAAGGGGGCCUGGAAGUUUGGACUGGGCAGAGCUCAACACAGCGUGGCAAGGUGGCUGUGGCUAGACUGCCUCUCUGGAUACCUCGUCACCCAGCAGGGCAUCUCUGAGAGAAAUGCC | 1.36
6 | UACGUAGGUGGUUUUCCCCUGAUAGUGCUAAGGGGGCCUGGAAGUUUGGACUGGGCAGAGCUCAACACAGCGUGGCAAGGUGGCUGUGGCUAGACUGCCUCUCUGGAUUCCUCGUCACGCAGCAGGGCAUCUCUGAGAGAGAUGCC | 2.3
7 | UACGUAGGUGGUUUUCCCCUGAUAGUGCUAAGGGGGCCUGGAAGUUUGGACUGGGCAGAGCUCAACACAGCGUGGCAAGGUGGCUGUGGCUAGACUGCCUCUCUGGAAUCCACGUCACUCAGCAGGGCAUCUCUGAGAGAAAUGCC | 1.89
8 | UACGUAGGUGGUUUUCCCCUGAUAGUGCUAAGGGGGCCUGGAAGUUUGGACUGGGCAGAGCUCAACACAGCGUGGCAAUGUGGCUGUGGCUAGACUGCCUCUCUGGAUUCCUCGUCACUCGGCAGGGCAUCUCUGAGAGGAAUGCC | 1.32
9 | UACGUAGGUGGUUUUCCCCUGAUAGUGCUAAGGGGGCCUGGAAGUUUGGACUGGGCAGAGCUCAACACAGCGUGGCAAGGUGGCUGUGGCUAGACUGCCUCUCUGGAUUCCUCGUCACUCAGCAGGGCAACUCUGAGGGAAAUGCC | 0.69
10 | UACGUAGGUGGUUUUCCCCUGAUAGUGCUAAGGGGGCCUGGAAGUUUGGACUGGGCAGAGCUCAACACAGCGUGGCAAGGUGGCCGUGGCUAGACUGCCUCUCAGGAUUCCUCGUCACUCAGCAGGGCAUCUCUGGGAGAAAUGCC | 0
11 | UACGUAGGUGGUUUUCCCCUGAUAGUGCUAAGGGGGCCUGGAAGUUUGGACUGGGCAGAGCUCAACACAGCGUGGCAAGGUGGCUGUGGCUAGACUGCCUCUCUGGAUUCCCCGUCACUCAGCAGGGCAUCUCAGAGAGAAAUGCC | 0.37
12 | UACGUAGGUGGUUUUCCCCUGAUAGUGCUAAGGGGGCCUGGAAGUUUGGACUGGGCAGAGCUCAACACAGCGUGGCAAGGUGGCUGUGGCUAGACUGCCUCCCUGGAUUCCUCGUCACUCAGCGGGGCAUCUCUGAGAGAAAUGCC | 1.15
13 | UACGUAGGUGGUUUUCCCCUGAUAGUGCUAAGGGGGCCUGGAAGUUUGGACUGGGCAGAGCUCAACACAGCGUGGCAAGGUGGCUGUGGCUAGACUGCCUCUCUGGAUUCCUCGUCACUCAGCAGGGCACCUCUGAGAGAAACGCC | 2.45
14 | UACGUAGGUGGUUUUCCCCUGAUAGUGCUAAGGGGGCCUGGAAGUUUGGACUGGGCAGAGCUCAACACAGCGUGGCAAGGUGGCUGUGGCUAGACUGCCUCUCUGGAUUCCUCGUCACUCAGCAGGGCACCUCUAAGAGAAAUGCC | 0.77
15 | UACGUAGGUGGUUUUCCCCUGAUAGUGCUAAGGGGGCCUGGAAGUUUGGACUGGGCAGAGCUCAACACAGCGUGGCAAUGUGGCUGUGGCUAGACUGCCUCUCUGGAUUCCUCGUCACUAAGCAGGGCAUCUCUGAGAGGAAUGCC | 1.53
16 | UACGUAGGUGGUUUUCCCCUGAUAGUGCUAAGGGGGCCUGGAAGUUUGGACUGGGCAGAGCUCAACACAGCGUGGCAAGGUGGCUGUGGCUAGACUGCCUCGCUGGAUUCCUCGUCACUCAGCAGGGCUUCUCUGAGAGAAAUGCC | 0
17 | UACGUAGGUGGUUUUCCCCUGAUAGUGCUAAGGGGGCCUGGAAGUUUGGACUGGGCAGAGCUCAACACAGCGUGGCAAGGUGGCUGUGGCUAGACUGCCUCUCUGGAUUCCCCGUCACUCAGCAGGGCAUCCCUGAGAGAAAUGCC | 0.56
18 | UACGUAGGUGGUUUUCCCCUGAUAGUGCUAAGGGGGCCUGGAAGUUUGGACUGGGCAGAGCUCAACACAGCGUGGCAAGGUGGCCGUGGCUAGACUGCCUCCCUGGAUUCCUCGUCACUCAGCAGGGCAUCUCUGAGAGUAAUGCC | 0
19 | UACGUAGGUGGUUUUCCCCUGAUAGUGCUAAGGGGGCCUGGAAGUUUGGACUGGGCAGAGCUCAACACAGCGUGGCAAGGUGGCUGUGGCGAGACUGCCUCUCUGGAUUCCUCGUCACUCAGCAGGGCAUCUCUGGGAGAAAUGCC | 0.09
20 | UACGUAGGUGGUUUUCCCCUGAUAGUGCUAAGGGGGCCUGGAAGUUUGGACUGGGCAGAGCUCAACACAGCGUGGCAAGGUGGCAGUGGCUAGACUGCCUCUCUGGAUCCCUCGUCACUCAGCAGGGCAUCUCUGGGAGAAAUGCC | 0
